Assay results taken from the RNAGym collection of RNA variant scans (doi:10.7554/elife.90254).
Read counts are not given, so values of variants with three or more changes are uncertain.

B1: LINE1-full (parent)
chain: UACGUAGGUGGUUUUCCCCUGAUAGUGCUAAGGGGGCCUGGAAGUUUGGACUGGGCAGAGCUCAACACAGCGUGGCAAAGUGGCUGUGGCUAGACUGCCUCUCUGGAUUCCUCGUCACUCAGCAGGGCAUCUCUGAGAGAAAUGCC

Variants of: B1
Assay: self-cleavage, relative activity (ratio to wild type); higher = more cleavage; in vitro, sequencing; the parent is a self-cleaving ribozyme

Row | Variant | self-cleavage
1 | U14C A50G A141G | 0.77
2 | U14C C19U A42U | 0.94
3 | U14C A22G U47A G60U U62C U96A U119C | 0.12
4 | U14C U15A G114A | 0.63
5 | U14C U45C G114A | 1.07
6 | U14C G44A C71G | 0.46
7 | U14C U15A U39A G72A | 1.18
8 | U14C U39C C113A U130C | 1.45
9 | U14C U23C G126C | 1.17
10 | U14C A57U A142G | 0.18
11 | U14C A50G G72A | 0.88
12 | U14C U20A U87A | 0.35
13 | U14C A77U A129U | 0.84
14 | U14C A43G U73A A124G | 1.41
15 | U14C A67G A136G | 0.4
16 | U14A A117C A124U U132A | 1.21
17 | U14C G34U A43U U115C A121G A142U | 1.42
18 | U14A U47A U119A A140G | 0.95
19 | U14C G48A U87C | 0.21
20 | U14C A31G U119C A121G | 2.3
21 | U14C U20C U87C | 0

Row | Variant | self-cleavage
22 | U14C A42G A50G U104C G126U C146A | 1.84
23 | U14A U85C A142U | 0.09
24 | U14C A65G A107U | 0.12
25 | U14C U26A A79U | 1.49
26 | U14C A57G A117U | 0.8
27 | U14C U20C A59G A67C U85A A138G | 0
28 | U14C A43G U130C | 1.04
29 | U14C A59G U130A | 0.24
30 | U14A A121G G125U A142G | 1.35
31 | U14C U45G U47C A57U G86A A140G | 0.07
32 | U14C U47C A107G C133A A142G | 0.71
33 | U14C U20A A69G U109G | 0
34 | U14C U47C U132C | 0.77
35 | U14C A30U U87C | 0.43
36 | U14A U39A U81A U109C | 0.82
37 | U14A U100C U130A | 0.9
38 | U14C G89C U109C | 0.06
39 | U14C G25A A31U U100A U104C A142G | 2.04
40 | U14C G36U A64G U104A | 0.26
41 | U14C C19U A24G A77U U96C | 0.11
42 | U14A A31U A78G | 0.96

Row | Variant | self-cleavage
43 | U14C U26A A42G A57C U81A | 0.09
44 | U14C C19U U87G U102G | 0.66
45 | U14C A57G U96C | 1.53
46 | U14C U45C G97A U108A A136U A142G | 0.1
47 | U14C A42G A78G U96A | 0.19
48 | U14C G60A U143A | 0.04
49 | U14C U45A A64C U85C U134A A140G | 0.08
50 | U14A A67C U109A | 0
51 | U14A A42U U100C U134A U143C | 1.52
52 | U14C A107G A136U | 1.67
53 | U14C U20C A67G | 0.21
54 | U14C G32U A129G | 1.27
55 | U14C U39A A117U | 0.97
56 | U14A G34U A65G A78G C118U | 0.05
57 | U14C A67U A129G | 0.12
58 | U14C U15C U109C A141G | 1.36
59 | U14C U26G A42G | 0.67
60 | U14C A57U U73A A142G | 0.05
61 | U14C C113U A141G | 1.24
62 | U14C A24U A94U U108C A141G | 0.59
63 | U14A A22G A78G | 0.88

Row | Variant | self-cleavage
64 | U14C U39C U96C A129G | 0
65 | U14C U39C U62A | 0.07
66 | U14A G25U A77U | 0.63
67 | U14C U23A U143C | 0.93
68 | U14A C90A U119A | 0.02
69 | U14C C90U U115C | 0.01
70 | U14C A22U U100C G122U | 2.02
71 | U14C U26C A65U U112G | 0
72 | U14C G60A U96A U102C U132C A140U | 0
73 | U14C U15C A79G | 1.67
74 | U14C U15C U62C A67G A77C U81A A117C | 0
75 | U14C C38U U46C | 1.36
76 | U14C C68U A79G U96A A141G | 0.05
77 | U14C U26A U104G A141C | 0.39
78 | U14C U26C U46C | 1.48
79 | U14C A78G C95A | 0.12
80 | U14A A42G U130G | 0.67
81 | U14C A78G A140G | 0.86
82 | U14C G36A U39A | 1.03
83 | U14C C76U A107G | 1.93
84 | U14C A67G U85C | 0
